Test results taken from PubChem BioAssay AID1477 (National Center for Advancing Translational Sciences (NCATS), 2009).
Hit rate of the full screen: of about 230,000 compounds, fewer than 10 were called active. Inconclusive means that the source gave no clear call. Such entries were picked first, then a sample of the others. The call rests on the fitted dose curve; in most records, active means well fitted curve in the direction sought with a large enough effect; inconclusive means small, poorly fitted or top-dose-only effect, or effect the other way, or another doubt; inactive means no such curve, though single readings can be large or run the other way. Potencies of inconclusive entries are left out as doubtful fits.
Wherever activity, negative = inhibition is given: % of control where 0% means no effect.

These molecules were tested against Runt-related transcription factor 1 (Homo sapiens) + Core-binding factor subunit beta (Homo sapiens) (UniProt Q01196+Q13951) (assay: qHTS Assay for Compounds Blocking the Interaction Between CBF-beta and RUNX1 for the Treatment of Acute Myeloid Leukemia). Conditions: AlphaScreen CBFb-His/RUNX1-biotin binding, biochemical; activity, negative = inhibition: at 59.8 µM (top of the series) unless noted.
Sequence of UniProt Q01196 (Q01196 whole entry, looked up): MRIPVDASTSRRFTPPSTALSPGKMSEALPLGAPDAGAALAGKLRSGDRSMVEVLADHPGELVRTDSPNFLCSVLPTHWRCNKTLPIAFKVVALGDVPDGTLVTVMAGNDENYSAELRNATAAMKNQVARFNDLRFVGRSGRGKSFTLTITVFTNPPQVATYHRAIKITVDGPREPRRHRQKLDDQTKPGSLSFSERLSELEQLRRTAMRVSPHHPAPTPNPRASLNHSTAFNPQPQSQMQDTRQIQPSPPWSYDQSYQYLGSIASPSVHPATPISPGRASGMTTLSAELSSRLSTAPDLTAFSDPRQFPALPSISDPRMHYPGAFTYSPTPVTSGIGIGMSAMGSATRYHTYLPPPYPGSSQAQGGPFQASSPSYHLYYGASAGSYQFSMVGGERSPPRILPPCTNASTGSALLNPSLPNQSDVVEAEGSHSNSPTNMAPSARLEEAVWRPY
Sequence of UniProt Q01196 (Q13951 whole entry, looked up): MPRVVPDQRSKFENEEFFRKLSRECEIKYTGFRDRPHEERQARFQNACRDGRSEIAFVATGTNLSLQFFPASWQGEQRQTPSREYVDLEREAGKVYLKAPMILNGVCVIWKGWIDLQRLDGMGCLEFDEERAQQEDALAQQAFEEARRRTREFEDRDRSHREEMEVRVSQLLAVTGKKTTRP
Procedure, shortened: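 Compounds were screened at multiple concentrations against a preformed CBF-beta(His)/RUNX1(biotin) complex (30 nM of each) for 15 min at room temperature, followed by 90 min with nickel and streptavidin beads and AlphaScreen reading.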
In the case of `Cc1cc(/C=C2\C(=O)NN(c3ccccc3)C2=O)c(C)n1-c1ccccc1O`, the Potency is reported as inconclusive [inhibitor, partial curve].
In the case of `C(=N\Nc1nc2ccccc2s1)/c1ccccn1`, the Potency is reported as inconclusive [inhibitor, partial curve].
With `CN(C)c1ccc(C(=S)N2CCN(c3ccc([N+](=O)[O-])cc3)CC2)cc1` the Potency was “inactive”.
For `Cn1cc(C(=O)c2ccc(Cl)cc2)cc1-c1nc2ccccc2n1C`, the Potency was inconclusive [inhibitor, single point].
In the case of `CCOC(=O)c1c(NC(=O)/C=C/c2ccc(C)o2)sc(C)c1C`, the Potency is reported as “inactive”.
With `CCN(Cc1ccccc1)c1ccc(/C=N/NS(=O)(=O)c2cccc([N+](=O)[O-])c2)cc1` the Potency was inconclusive [inhibitor, partial curve].
For `CCCc1cc(=O)oc2c3c(c4c(c12)OC(C)(C)C=C4)OC(C)C(C)C3O` (configuration not stated), the Potency was “inactive”.
In the case of `CCOC(=O)N/N=C1/C[C@@H](O)[C@@H](O)[C@@H]2[C@@H]3C(=O)N(C[C@@H]4CCCO4)C(=O)[C@H]3CC[C@H]12`, the activity, negative = inhibition is reported as inactive: -2.5% [at 13.1 µM].
With `Cc1ccc2cc(CCNC(=O)c3ccc4c(c3)OCO4)c(=O)[nH]c2c1` the Potency was inconclusive [inhibitor, single point].
In the case of `COc1cccc(/C=C(\CC(=O)O)c2nc3ccccc3s2)c1`, the Potency is reported as “inactive”.
For `COc1cccc(N2CCN(c3cnc4ccccc4n3)CC2)c1`, the Potency was inconclusive [activator, partial curve].
In the case of `Cn1c(SCC(=O)NCc2ccco2)nnc1-c1ccc(S(=O)(=O)N2CCOCC2)cc1`, the Potency is reported as “inactive”.
For `CC1CCN(c2oc(-c3ccccc3Cl)nc2C#N)CC1`, the Potency was inconclusive [inhibitor, partial curve].
In the case of `CN(C)c1ccc(NC(=O)c2cn(-c3ccccc3)nc2-c2cccs2)cc1`, the Potency is reported as inconclusive [inhibitor, partial curve].
`Cc1cc(N(CCO)CCO)ccc1C(c1ccc(N(CCO)CCO)cc1C)c1ccccc1Cl` was tested, and the Potency was inconclusive [inhibitor, single point].
`Cc1cc(NC(=O)CCc2ccc(S(=O)(=O)N3CCOCC3)cc2)n(-c2ccccc2)n1` was tested, and the Potency was “inactive”.
With `CCOC(=O)CNC(=O)CSc1nnc(-c2ccco2)n1Cc1ccco1` the Potency was inconclusive [inhibitor, single point].
For `O=C(CSc1ccccn1)N/N=C/c1ccccc1[N+](=O)[O-]`, the Potency was inconclusive [inhibitor, partial curve].
`CC(C)n1cc(-c2ccc(Cl)cc2)cc(C#N)c1=O` was tested, and the Potency was inconclusive [activator, single point].
For `COc1cccc(/C=C2\SC(=S)N(N3CCOCC3)C2=O)c1OC`, the Potency was inconclusive [inhibitor, single point].
For `Clc1ccc(/C=N/Nc2nc(Cl)nc3ccccc23)cc1`, the Potency was “inactive”.
With `O=[N+]([O-])c1ccc(Sc2cccc[n+]2[O-])c2nonc12` the Potency was inconclusive [inhibitor, partial curve].
With `Cc1nc(Nc2nc3ccccc3o2)nc(C)c1C` the Potency was “inactive”.
In the case of `O=C1CC(Nc2ccc(N3CCOCC3)cc2)C(=O)N1c1ccccc1` (configuration not stated), the Potency is reported as “inactive”.
`Cc1ncc(CO)c(/C=N/NC(=S)Nc2ccc(Cl)c(Cl)c2)c1O` was tested, and the Potency was inconclusive [inhibitor, partial curve].
With `COc1ccc(/C=N/Nc2nc(-c3cccc(S(=O)(=O)N4CCCC4)c3)cs2)cc1OC` the Potency was “inactive”.
For `O=C1C(NS(=O)(=O)c2cccs2)=C(N2CCN(Cc3ccccc3)CC2)C(=O)c2ccccc21`, the Potency was inconclusive [inhibitor, single point].
`Cn1nnnc1SCCNCc1cc(Cl)ccc1OCc1ccccc1` was tested, and the Potency was inconclusive [activator, single point].
`COC(=O)[C@@]1(Cc2ccc(OC)cc2)[C@H]2c3cc(C(=O)N4CCCC4)n(Cc4ccc(C)o4)c3C[C@H]2CN1C(=O)c1ccccc1` was tested, and the Potency was inconclusive [activator, single point].
For `O=c1[nH]c2cc3c(cc2cc1C(c1nnnn1Cc1ccccc1)N1CCN2CCCC2C1)OCCO3` (configuration not stated), the Potency was “inactive”.
In the case of `CCN(c1ccccc1)S(=O)(=O)c1ccc2[nH]c(=O)[nH]c2c1`, the Potency is reported as inconclusive [inhibitor, single point].
With `CCCCCn1c(NC(=O)c2ccco2)c(S(=O)(=O)c2ccc(C)cc2)c2nc3ccccc3nc21` the Potency was “inactive”.
For `CN1CCCN(C(c2ccccc2)c2ccc(Cl)cc2)CC1` (configuration not stated), the Potency was “inactive”.
`Cc1ccc(S(=O)(=O)N(Cc2ccccc2)Cc2ccco2)cc1` was tested, and the Potency was inconclusive [activator, single point].
For `Cc1ccc(OCC(=O)O/N=C(\N)Cc2ccc(Cl)cc2)cc1`, the Potency was inconclusive [activator, single point].
With `COCc1nc2ccccc2n1Cc1ccccc1C` the Potency was inconclusive [inhibitor, single point].
With `CCOc1ccc(Nc2nc(N)nc(CSC(=S)N3CCN(c4ccccc4)CC3)n2)cc1` the Potency was inconclusive [inhibitor, single point].
For `O=C(NS(=O)(=O)c1ccccc1)c1ccccc1F`, the Potency was “inactive”.
For `COc1ccc(NC(=O)C2CCN(C(=O)c3ccc(OC)cc3)CC2)cc1`, the Potency was “inactive”.
For `N#Cc1ccc(CSc2nnc(NC(=O)C3CC(=O)N(c4ccc5c(c4)OCCO5)C3)s2)cc1` (configuration not stated), the Potency was inconclusive [inhibitor, single point].
With `O=C(Cc1ccc([N+](=O)[O-])cc1)NCc1ccccc1Cl` the Potency was inconclusive [inhibitor, single point].
In the case of `Cc1ccccc1NC(=O)CSc1ccsc1[N+](=O)[O-]`, the Potency is reported as inconclusive [inhibitor, single point].
For `CCCCCCC(=O)NN1CCN(C)CC1`, the Potency was “inactive”.
With `C/C(=N\NS(=O)(=O)c1ccc([N+](=O)[O-])cc1)c1cccs1` the Potency was inconclusive [inhibitor, single point].
For `Cc1cccc(/C(N)=N/OC(=O)c2cccs2)c1`, the Potency was “inactive”.
`CCOc1ccc(OCCCCOc2ccccc2C(C)=O)cc1` was tested, and the Potency was inconclusive [activator, single point].
`Cn1nc(C(=O)Nc2ccc(S(=O)(=O)Nc3ncccn3)cc2)ccc1=O` was tested, and the Potency was inconclusive [activator, partial curve].
For `Cc1cc(/C=N/O)c(C)n1-c1ccc(Br)cc1`, the Potency was “inactive”.
In the case of `Cc1ccc(-c2ccc(/C=C(\C#N)C(N)=S)n2C)cc1`, the Potency is reported as inconclusive [inhibitor, full curve].
In the case of `Cc1nnc(NC(=O)CSc2ccc3nnc(-c4ccccn4)n3n2)s1`, the Potency is reported as inconclusive [inhibitor, partial curve].
With `Cc1cc(/C=C\c2ccccc2)nc2ccccc12` the Potency was inconclusive [activator, partial curve].
In the case of `Cc1ccc(-c2nn(-c3ccccc3)cc2C=O)o1`, the Potency is reported as inconclusive [inhibitor, single point].
In the case of `O=C(NC(=S)Nc1ccc(C(=O)N2CCOCC2)cc1)c1ccc([N+](=O)[O-])cc1`, the Potency is reported as “inactive”.
For `CC1=NN(c2ccccc2)C(=O)/C1=C\c1cn(C)c2ccccc12`, the Potency was inconclusive [inhibitor, partial curve].
In the case of `COc1ccc2[nH]c(C)c(CCN(Cc3cccs3)C(=S)Nc3ccc(F)cc3)c2c1`, the Potency is reported as “inactive”.
In the case of `CCCCCCOC1(c2ccccc2)OC(=O)c2ccccc21` (configuration not stated), the Potency is reported as inconclusive [activator, single point].
In the case of `COc1ccc(C(=O)N/N=C/c2ccc(OC(=O)c3cccc4ccccc34)c([N+](=O)[O-])c2)cc1`, the Potency is reported as inconclusive [inhibitor, single point].
`N[C@H](CCC(=O)N[C@H](CSN=O)C(=O)NCC(=O)O)C(=O)O` was tested, and the Potency was “inactive”.
For `O=c1cc(Nc2ccc3c(c2)OCCO3)[nH]c(=O)n1-c1ccc(Cl)cc1`, the Potency was “inactive”.
With `CCCCCCN1CCN(c2ccccc2Cl)CC1` the Potency was “inactive”.
`O=C(CN1CCCC1=O)NC1C2CC3CC(C2)CC1C3` (configuration not stated) was tested, and the Potency was “inactive”.
In the case of `c1ccc2c(c1)ncn2CCC1CCCCC1`, the Potency is reported as inconclusive [inhibitor, single point].
In the case of `Cc1ccccc1-c1nc2sc3c(c2c(=O)n1N)CCCC3`, the Potency is reported as “inactive”.
In the case of `Cc1oc(C(=O)O)cc1COc1cccc2cccnc12`, the Potency is reported as inconclusive [inhibitor, single point].
For `COc1ccccc1NC(=S)NC(=O)/C=C/c1ccco1`, the Potency was inconclusive [inhibitor, single point].
`CC1(C)C=C(c2ccc(C(=O)O)s2)CC(C)(C)N1` was tested, and the Potency was inconclusive [activator, single point].
For `COc1ccc(OCc2nc(C#N)c(N3CCN(c4ccc(OC)cc4)CC3)o2)cc1`, the Potency was inconclusive [inhibitor, single point].
With `Cc1ccc(S(=O)(=O)Nc2cc(C)nn2-c2ccccc2)cc1` the Potency was “inactive”.
With `COc1cc(C)nc(N(Cc2ccccc2)S(=O)(=O)c2ccc(C)cc2)n1` the Potency was inconclusive [activator, single point].
For `Cc1cc2c(s1)Nc1ccccc1N=C2N1CCN(C)CC1`, the Potency was inconclusive [inhibitor, single point].
In the case of `Cn1cccc1Cc1nnc(SCC(=O)Nc2ccc3c(c2)OCCO3)n1-c1ccc(F)cc1`, the Potency is reported as inconclusive [inhibitor, single point].
With `O=C(CCS(=O)(=O)c1ccc(Br)cc1)Nc1cc(F)ccc1F` the Potency was inconclusive [inhibitor, partial curve].
